# Laboratory results taken from a collection of fitness landscapes (doi:10.1126/science.1257360).
# This is one part of the list.
# B1: PhoQ; a variant is named by its letters at X, in order, P23837 (parent)
# chain: MKKLLRLFFPLSLRVRFLLATAAVVLVLSLAYGMVALIGYSVSFDKTTFRLLRGESNLFYTLAKWENNKLHVELPENIDKQSPTMTLIYDENGQLLWAQRDVPWLMKMIQPDWLKSNGFHEIEADVNDTSLLLSGDHSIQQQLQEVREDDDDAEMTHSVAVNVYPATSRMPKLTIVVVDTIPVELKSSYMVWSWFIYVLSANLLLVIPLLWVAAWWSLRPIEALAKEVRELEEHNRELLNPATTRELTSLVRNLNRLLKSERERYDKYRTTLTDLTHSLKTPLXXLQXXLRSLRSEKMSVSDAEPVMLEQISRISQQIGYYLHRASMRGGTLLSRELHPVAPLLDNLTSALNKVYQRKGVNISLDISPEISFVGEQNDFVEVMGNVLDNACKYCLEFVEISARQTDEHLYIVVEDDGPGIPLSKREVIFDRGQRVDTLRPGQGVGLAVAREITEQYEGKIVAGESMLGGARMEVIFGRQHSAPKDE
# Variants of: B1
# Experiment: enrichment ratio after two sorts for PhoP signalling (ratio (wild type AVST 3.29)); higher = more functional
# Settings: with PhoP (E. coli)
row,Variant,enrichment ratio
1,WHQY,≤ 0.25
2,VQFV,≤ 0.25
3,NVPA,≤ 0.25
4,FFPD,≤ 0.25
5,RGPK,≤ 0.25
6,YVDW,≤ 0.25
7,EDTG,≤ 0.25
8,AGLK,5.36
9,FRVF,≤ 0.25
10,LRQQ,≤ 0.25
11,PEDV,≤ 0.25
12,MHII,≤ 0.25
13,AFIK,≤ 0.25
14,YWCP,≤ 0.25
15,KSPF,≤ 0.25
16,PAFH,≤ 0.25
17,TLNK,4.31
18,RPPH,≤ 0.25
19,GCRD,≤ 0.25
20,NYSF,≤ 0.25
21,AHIP,≤ 0.25
22,GFEF,≤ 0.25
23,LFKQ,≤ 0.25
24,QVDL,1.84
25,WSAD,≤ 0.25
26,TMSN,12.5

row,Variant,enrichment ratio
1,NAMF,≤ 0.25
2,WPTW,≤ 0.25
3,PRNN,≤ 0.25
4,IQGC,≤ 0.25
5,ERLS,≤ 0.25
6,TSHQ,11.8
7,ANAI,30.1
8,YPDA,≤ 0.25
9,SVLL,3.01
10,NMIK,≤ 0.25
11,QVGL,0.705
12,QSEP,≤ 0.25
13,PEMF,≤ 0.25
14,YEES,≤ 0.25
15,DNIQ,≤ 0.25
16,GLDN,≤ 0.25
17,HHGI,≤ 0.25
18,YCWC,≤ 0.25
19,AHPF,≤ 0.25
20,YPQT,≤ 0.25
21,QNPN,≤ 0.25
22,NMKH,≤ 0.25
23,EAAG,≤ 0.25
24,YYQE,≤ 0.25
25,GISY,3.52
26,VDSV,≤ 0.25

row,Variant,enrichment ratio
1,EGTV,≤ 0.25
2,CHMF,≤ 0.25
3,SMEG,≤ 0.25
4,PQTS,0.402
5,TFRE,≤ 0.25
6,YFKQ,≤ 0.25
7,TPIK,≤ 0.25
8,FFFF,≤ 0.25
9,MSET,≤ 0.25
10,KRIA,≤ 0.25
11,FVPG,≤ 0.25
12,IKVC,≤ 0.25
13,FNYF,≤ 0.25
14,HECM,24
15,HHPD,≤ 0.25
16,DARG,≤ 0.25
17,HLVI,≤ 0.25
18,MSWQ,14.5
19,YMFQ,≤ 0.25
20,VQCE,≤ 0.25
21,LDLA,≤ 0.25
22,NFMT,≤ 0.25
23,TITG,8.82
24,IFSD,≤ 0.25
25,RRLE,≤ 0.25
26,LAKM,≤ 0.25

row,Variant,enrichment ratio
1,KENY,≤ 0.25
2,SKIP,≤ 0.25
3,AQPM,≤ 0.25
4,IEQT,≤ 0.25
5,LPEM,≤ 0.25
6,VISN,≤ 0.25
7,TTLA,16.9
8,NYNA,≤ 0.25
9,QSHE,≤ 0.25
10,TQDI,≤ 0.25
11,LRYA,≤ 0.25
12,WNRG,≤ 0.25
13,KDLM,≤ 0.25
14,DWSM,≤ 0.25
15,KVSC,≤ 0.25
16,ITIR,≤ 0.25
17,MVYD,≤ 0.25
18,KHEL,≤ 0.25
19,FMWE,≤ 0.25
20,EHPI,≤ 0.25
21,TVVY,≤ 0.25
22,CSTV,≤ 0.25
23,TAIQ,≤ 0.25
24,NMFA,≤ 0.25
25,TVRF,≤ 0.25
26,RGSS,≤ 0.25

row,Variant,enrichment ratio
1,GDLL,1.77
2,DWSI,≤ 0.25
3,TYSG,7.27
4,YETW,≤ 0.25
5,DRQF,≤ 0.25
6,IPKF,≤ 0.25
7,FISR,≤ 0.25
8,KARS,≤ 0.25
9,DTHQ,≤ 0.25
10,WESF,≤ 0.25
11,MQVY,1.21
12,GWYI,≤ 0.25
13,KGTW,≤ 0.25
14,FCKW,≤ 0.25
15,RMRM,≤ 0.25
16,SESE,24.9
17,WEER,≤ 0.25
18,QPFW,≤ 0.25
19,FQES,≤ 0.25
20,MNDS,≤ 0.25
21,WPAL,≤ 0.25
22,TDHA,≤ 0.25
23,HFLE,≤ 0.25
24,MENS,≤ 0.25
25,SQLD,9.99
26,SLAS,5.06

row,Variant,enrichment ratio
1,PETD,≤ 0.25
2,FKFN,≤ 0.25
3,REWE,≤ 0.25
4,PGED,≤ 0.25
5,YGYC,≤ 0.25
6,TTYM,10.1
7,KAFH,≤ 0.25
8,LHYH,≤ 0.25
9,RSAF,≤ 0.25
10,DIQP,≤ 0.25
11,CNES,≤ 0.25
12,LKLQ,≤ 0.25
13,FTHM,≤ 0.25
14,NAKP,≤ 0.25
15,EDFI,≤ 0.25
16,WMTT,≤ 0.25
17,NMYL,≤ 0.25
18,EEWS,≤ 0.25
19,WYYD,≤ 0.25
20,REWR,≤ 0.25
21,PGSN,≤ 0.25
22,VHLK,≤ 0.25
23,WAHP,≤ 0.25
